Source: patent US7632826B2, “Use of agonists of the glucocorticosteroid and/or mineralo-corticosteroid receptors, in particular corticosteroids for the treatment of addiction” (Curamentis Ltd., priority 1998, dated 2009)

Test system: opiate-addicted rats

C[C@]12C[C@H](O)[C@H]3[C@@H](CCC4=CC(=O)CC[C@@]43C)[C@@H]1CC[C@@H]2C(=O)CO [treatment (B), corticosterone]
ETZ intake under denaturation conditions in the follow-up re-tests (previously addicted rats after treatment, opiate solutions denatured with quinine hydrochloride 0.1 g/l, mean +/- SEM): 100.1 ± 6.3 µg/kg/day
Effect of treatment on addiction (in words) (previously addicted rats, follow-up re-tests): did not show any effect
